Test results published in the supplement of paper PMC11876631.
± gives the standard deviation of the averaged measurements. Laboratory Escherichia coli strains with one amino-acid change in an essential protein, pooled on minimal glucose agar with carbenicillin or gentamicin at twice the control MIC (plus kanamycin and chloramphenicol for the plasmids), 48 h. Fold change of barcode share against drug-free plates; higher = less susceptible. Active = above 20 in both replicates (the paper's putatively resistant). '<' = one read or none on drug, '>' = one read or none on a drug-free plate. Shares are relative, so most strains fall below 1 when a few take over. Listed are strains with at least 15 reads on both drug-free plates, and hits; most hits rest on fewer reference reads. Replicate rank correlation about 0.5. Edits are read from barcodes.

B1: lysA; a variant is named by its letters at X, in order (parent)
chain: MPHSLFSTDTDLTAENLLRLPAEFGCPXWXYDAQIIRRQIAALKQFDVVRFAQKACSNIHILRLMREQGVKVDSVSLGEIERALAAGYNPQTHPDDIXXTADVIDQATLERVSELQIPVNAGSVDMLDQLGQVSPGHRVWLRVNPGFGHGHSQKTNTGGENSKHGIWYTDLPAALDVIQRHHLQLVGIHMHIGSGVDYAHLEQXCGAMVRQVIEFGQDLQAISAGGGLSVPYQQGEEAVDTEHYYGLWNAAREQIARHLGHPVKLEIEPGRFLVAQSGVXXTQVRSVKQMGSRHFVLVDAGFNDLMRPAMYGSYHHISALAADGRSLEHAPTVETVVAGPLCESGDVFTQQEGGNVETRALPEVKAGDYLVLHDTGAYGASMSSNYNSRPLLPEVLFDNGQARLIRRRQTIEELLALELL
B2: yrfF; numbered along this chain (parent)
chain: MSTIVIFLAALLACSLLAGWLIKVRSRRRQLPWTNAFADAQTRKLTPEERSAVENYLESLTQVLQVPGPTGASAAPISLALNAESNNVMMLTHAITRYGISTDDPNKWRYYLDSVEVHLPPFWEQYINDENTVELIHTDSLPLVISLNGHTLQEYMQETRSYALQPVPSTQASIRGEESEQIELLNIRKETHEEYALSRPRGLREALLIVASFLMFFFCLITPDVFVPWLAGGALLLLGAGLWGLFAPPAKSSLREIHCLRGTPRRWGLFGENDQEQINNISLGIIDLVYPAHWQPYIAQDLGQQTDIDIYLDRHVVRQGRYLSLHDEVKNFPLQHWLRSTIIAAGSLLVLFMLLFWIPLDMPLKFTLSWMKGAQTIEATSVKQLADAGVRVGDTLRISGTGMCNIRTSGTWSAKTNSPFLPFDCSQIIWNDARSLPLPESELVNKATALTEAVNRQLHPKPEDESRVSASLRSAIQKSGMVLLDDFGDIVLKTADLCSAKDDCVRLKNALVNLGNSKDWDALVKRANAGKLDGVNVLLRPVSAESLDNLVATSTAPFITHETARAAQSLNSPAPGGFLIVSDEGSDFVDQPWPSASLYDYPPQEQWNAFQKLAQMLMHTPFNAEGIVTKIFTDANGTQHIGLHPIPDRSGLWRYLSTTLLLLTMLGSAIYNGVQAWRRYQRHRTRMMEIQAYYESCLNPQLITPSESLIE
B3: folC; numbered along this chain (parent)
chain: MIIKRTPQAASPLASWLSYLENLHSKTIDLGLERVSLVAARLGVLKPAPFVFTVAGTNGKGTTCRTLESILMAAGYKVGVYSSPHLVRYTERVRVQGQELPESAHTASFAEIESARGDISLTYFEYGTLSALWLFKQAQLDVVILEVGLGGRLDATNIVDADVAVVTSIALDHTDWLGPDRESIGREKAGIFRSEKPAIVGEPEMPSTIADVAQEKGALLQRRGVEWNYSVTDHDWAFSDAHGTLENLPLPLVPQPNAATALAALRASGLEVSENAIRDGIASAILPGRFQIVSESPRVIFDVAHNPHAAEYLTGRMKALPKNGRVLAVIGMLHDKDIAGTLAWLKSVVDDWYCAPLEGPRGATAEQLLEHLGNGKSFDSVAQAWDAAMADAKAEDTVLVCGSFHTVAHVMEVIDARRSGGK
B4: topA; numbered along this chain (parent)
chain: MGKALVIVESPAKAKTINKYLGSDYVVKSSVGHIRDLPTSGSAAKKSADSTSTKTAKKPKKDERGALVNRMGVDPWHNWEAHYEVLPGKEKVVSELKQLAEKADHIYLATDLDREGEAIAWHLREVIGGDDARYSRVVFNEITKNAIRQAFNKPGELNIDRVNAQQARRFMDRVVGYMVSPLLWKKIARGLSAGRVQSVAVRLVVEREREIKAFVPEEFWEVDASTTTPSGEALALQVTHQNDKPFRPVNKEQTQAAVSLLEKARYSVLEREDKPTTSKPGAPFITSTLQQAASTRLGFGVKKTMMMAQRLYEAGYITYMRTDSTNLSQDAVNMVRGYISDNFGKKYLPESPNQYASKENSQEAHEAIRPSDVNVMAESLKDMEADAQKLYQLIWRQFVACQMTPAKYDSTTLTVGAGDFRLKARGRILRFDGWTKVMPALRKGDEDRILPAVNKGDALTLVELTPAQHFTKPPARFSEASLVKELEKRGIGRPSTYASIISTIQDRGYVRVENRRFYAEKMGEIVTDRLEENFRELMNYDFTAQMENSLDQVANHEAEWKAVLDHFFSDFTQQLDKAEKDPEEGGMRPNQMVLTSIDCPTCGRKMGIRTASTGVFLGCSGYALPPKERCKTTINLVPENEVLNVLEGEDAETNALRAKRRCPKCGTAMDSYLIDPKRKLHVCGNNPTCDGYEIEEGEFRIKGYDGPIVECEKCGSEMHLKMGRFGKYMACTNEECKNTRKILRNGEVAPPKEDPVPLPELPCEKSDAYFVLRDGAAGVFLAANTFPKSRETRAPLVEELYRFRDRLPEKLRYLADAPQQDPEGNKTMVRFSRKTKQQYVSSEKDGKATGWSAFYVDGKWVEGKK

Variants of: B1
Assay: barcode share on antibiotic plates over drug-free plates; higher = less susceptible
Details: with Escherichia coli (laboratory strain); antibiotic: carbenicillin; 2× MIC (3.1 µg/mL)
Protocol: (§1)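 A pool of E. coli strains, each edited to carry one amino-acid change in an essential protein, was grown for 48 h on minimal glucose agar with or without antibiotic; strain barcodes were sequenced; mean of two replicates.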

Q: VVVFVLP was tested. Which “fold change of barcode share” value did it give?
A: 0.631 ± 0.41

Q: VVVFVLA was tested. Which “fold change of barcode share” value did it give?
A: 0.39 ± 0.084

Q: VVVFVLW was tested. Which “fold change of barcode share” value did it give?
A: 0.621 ± 0.13

Q: Which “fold change of barcode share” value does the source give for VVVFVLQ here?
A: 0.828 ± 0.18

Q: For VVVFVLD, which “fold change of barcode share” value is on record?
A: 0.525 ± 0.064

Q: How did the “fold change of barcode share” value turn out when VVAFVLI was run?
A: 0.546 ± 0.16

Q: With VVVQVLI as the variant, how does the “fold change of barcode share” value read?
A: 0.402 ± 0.068

Q: VVDFVLI was tested. Which “fold change of barcode share” value did it give?
A: 1.527 ± 0.0064

Q: VVWFVLI was tested. Which “fold change of barcode share” value did it give?
A: 0.728 ± 0.016

Q: With VQVFVLI as the variant, how does the “fold change of barcode share” value read?
A: 0.527 ± 0.15

Q: For VVVDVLI, which “fold change of barcode share” value is on record?
A: 0.533 ± 0.2

Q: How did the “fold change of barcode share” value turn out when VVVAVLI was run?
A: 0.92 ± 0.19

Same assay, conditions: with Escherichia coli (laboratory strain); antibiotic: gentamicin; 2× MIC (MIC 0.45 µg/mL)

Q: VVVFVLP was tested. Which “fold change of barcode share” value did it give?
A: 0.0477 ± 0.058

Q: How did the “fold change of barcode share” value turn out when VVVFVLA was run?
A: 0.0565 ± 0.071

Q: For VVVFVLW, which “fold change of barcode share” value is on record?
A: 0.0462 ± 0.06

Q: How did the “fold change of barcode share” value turn out when VVVFVLQ was run?
A: 0.0435 ± 0.053

Q: For VVVFVLD, which “fold change of barcode share” value is on record?
A: 0.0348 ± 0.036

Q: For VVAFVLI, which “fold change of barcode share” value is on record?
A: 0.0209 ± 0.025

Q: For VVVQVLI, which “fold change of barcode share” value is on record?
A: 0.0361 ± 0.043

Q: With VVDFVLI as the variant, how does the “fold change of barcode share” value read?
A: 0.0315 ± 0.039

Q: How did the “fold change of barcode share” value turn out when VVWFVLI was run?
A: 0.0314 ± 0.035

Q: Which “fold change of barcode share” value does the source give for VQVFVLI here?
A: 0.0239 ± 0.029

Q: How did the “fold change of barcode share” value turn out when VVVDVLI was run?
A: 0.0348 ± 0.041

Q: Which “fold change of barcode share” value does the source give for VVVAVLI here?
A: 0.0185 ± 0.024

Q: With AVVFVLI as the variant, how does the “fold change of barcode share” value read?
A: 0.609 ± 0.85

Q: Which “fold change of barcode share” value does the source give for DVVFVLI here?
A: 0.0177 ± 0.022

Variants of: B2
Assay: as above
Details: with Escherichia coli (laboratory strain); antibiotic: gentamicin; 2× MIC (MIC 0.45 µg/mL)
Protocol: as §1

Q: How did the “fold change of barcode share” value turn out when W123Q was run?
A: 0.00631 ± 0.0037

Variants of: B3
Assay: as above
Details: with Escherichia coli (laboratory strain); antibiotic: carbenicillin; 2× MIC (3.1 µg/mL)
Protocol: as §1

Q: With L71W as the variant, how does the “fold change of barcode share” value read?
A: 0.382 ± 0.022

Q: With V143W as the variant, how does the “fold change of barcode share” value read?
A: 0.199 ± 0.096

Q: How did the “fold change of barcode share” value turn out when V407Q was run?
A: 1.13 ± 0.13

Q: For F52W, which “fold change of barcode share” value is on record?
A: 0.437 ± 0.24

Q: With F52Q as the variant, how does the “fold change of barcode share” value read?
A: 0.372 ± 0.051

Same assay, conditions: with Escherichia coli (laboratory strain); antibiotic: gentamicin; 2× MIC (MIC 0.45 µg/mL)

Q: L71W was tested. Which “fold change of barcode share” value did it give?
A: 0.00398 ± 0.00042

Q: For V143W, which “fold change of barcode share” value is on record?
A: < 0.0111

Q: Which “fold change of barcode share” value does the source give for F52W here?
A: 0.969 ± 1.4

Q: Which “fold change of barcode share” value does the source give for F52Q here?
A: 0.00627 ± 0.00052

Variants of: B4
Assay: as above
Details: with Escherichia coli (laboratory strain); antibiotic: gentamicin; 2× MIC (MIC 0.45 µg/mL)
Protocol: as §1

Q: How did the “fold change of barcode share” value turn out when I7W was run?
A: > 732 [active]

Q: How did the “fold change of barcode share” value turn out when I7A was run?
A: 165 [active]

Q: L617W was tested. Which “fold change of barcode share” value did it give?
A: < 0.0136

Q: Which “fold change of barcode share” value does the source give for L617A here?
A: < 0.0161

Q: F616W was tested. Which “fold change of barcode share” value did it give?
A: < 0.0091

Q: With F616A as the variant, how does the “fold change of barcode share” value read?
A: 0.0134 ± 0.0057

Q: With F616Q as the variant, how does the “fold change of barcode share” value read?
A: 0.0407 ± 0.036

Q: F616P was tested. Which “fold change of barcode share” value did it give?
A: 0.03 ± 0.029

Q: V204Q was tested. Which “fold change of barcode share” value did it give?
A: < 0.00947

Same assay, conditions: with Escherichia coli (laboratory strain); antibiotic: carbenicillin; 2× MIC (3.1 µg/mL)

Q: How did the “fold change of barcode share” value turn out when L617W was run?
A: 0.476 ± 0.19

Q: L617D was tested. Which “fold change of barcode share” value did it give?
A: 0.735 ± 0.063

Q: With F616W as the variant, how does the “fold change of barcode share” value read?
A: 0.234 ± 0.046

Q: For F616D, which “fold change of barcode share” value is on record?
A: 0.39 ± 0.31

Q: Which “fold change of barcode share” value does the source give for F616A here?
A: 0.491 ± 0.097

Q: How did the “fold change of barcode share” value turn out when F616Q was run?
A: 0.405 ± 0.11

Q: Which “fold change of barcode share” value does the source give for F616P here?
A: 0.464 ± 0.098

Q: With V204Q as the variant, how does the “fold change of barcode share” value read?
A: 0.323 ± 0.28
